{
  "source": "PubChem BioAssay AID624202",
  "about": "(National Center for Advancing Translational Sciences (NCATS), 2012)",
  "note": "Several values for one entry are separate records, joined by “and”; a condition that tells them apart may be missing. Equal values may be shown once. Screen size: about 380,000 compounds; about 4,000 (1.1%) were called active. The shares of active, inactive and inconclusive entries below differ from those in the screen. Calls come from the whole dose curve; as a rule, active = well fitted activation curve with a large enough effect; inconclusive = small, poorly fitted or top-dose-only effect; inactive = no such curve, though single readings can be large or run the other way. Where the call is inconclusive, the potency comes from a doubtful curve fit. Potency is the fitted concentration of half-maximal effect; tags give direction and shape of the fitted curve.",
  "data": [
    {"assay": "qHTS Assay to Identify Small Molecule Activators of BRCA1 Expression; note: nearly all actives have a fitted effect of over 80% in size", "details": "MCF7-BRCA1-FFLuc reporter, luminescence, 48 h; activation: at 46.1 µM (top of the series), scaled: vehicle 0%, 10 µM genistein 100% unless noted", "in_short": "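Using MCF7 cells harboring a BRCA1 firefly luciferase reporter, plated 2 h before compound pinning, the screen measured luminescence after 48 h incubation. Responses were normalized to DMSO and 10 microM genistein, then fitted for concentration-effect.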", "values": [
      {"smiles": "Cn1c(NCc2ccccc2O)nc2ccccc21", "Potency": "inconclusive: 8.91 µM [activator, partial curve, poor fit]"},
      {"smiles": "COc1ccc2oc(=O)c(C(=O)Nc3cccc(C)c3)cc2c1", "Potency": "active: 3.16 µM"},
      {"smiles": "Cc1nc(-c2ccc(C(=O)Nc3cccc(F)c3)cc2)cs1", "Potency": "inconclusive: 0.631 µM [activator, full curve, poor fit]"},
      {"smiles": "CN1CCS/C1=C\\C=C1/SC(=S)N(CC(=O)O)C1=O", "Potency": "inactive"},
      {"smiles": "O=C(COC(=O)c1ccc(-n2cnnn2)cc1)c1ccc(Br)cc1", "Potency": "inconclusive: 10 µM [activator, partial curve, poor fit]"},
      {"smiles": "CCOC(=O)c1sc(NNC(=O)c2ccc(F)cc2)nc1C", "Potency": "inactive"},
      {"smiles": "O=C1c2ccccc2C(=O)c2c(NCCCN(CCO)CCO)cccc21", "Potency": "inactive"},
      {"smiles": "CCOc1ccccc1NC(=O)C(OC(=O)c1ccc(CC)cc1)c1ccccc1", "note": "(configuration not stated)", "Potency": "inactive"},
      {"smiles": "Cn1c(-c2ccc(Br)o2)nc2ccccc21", "Potency": "inconclusive: 1.26 µM [activator, partial curve, poor fit] and inconclusive: 1 µM [activator, full curve, poor fit]"},
      {"smiles": "Cc1ccccc1NC(=O)c1ccc2c(c1)OCCO2", "Potency": "inconclusive: 14.1 µM [activator, partial curve, poor fit]"},
      {"smiles": "COc1cc(CNCc2ccccn2)ccc1OCC(N)=O", "Potency": "inactive"},
      {"smiles": "Cc1cc(N2CCC(C)CC2)nc2cccc(O)c12", "Potency": "inconclusive: 20 µM [activator, single point]"},
      {"smiles": "Cc1cccc(/C=N/NC(=O)Cc2cccs2)c1", "Potency": "active: 11.2 µM"},
      {"smiles": "O=C(NNC1=Nc2ccccc2SC1)c1ccc(Cl)cc1", "Potency": "inactive"},
      {"smiles": "CCN(CC)c1ccc2c(c1)OC(N)=C(C#N)C2c1cccnc1", "note": "(configuration not stated)", "activation": "inconclusive: -81.9% [activator]"},
      {"smiles": "CC(C)(C)c1ccc(C(=O)NC(=S)Nc2nc3c(s2)CCCC3)cc1", "Potency": "inactive"},
      {"smiles": "Cc1ccc(Cn2ncn(-c3ccccc3)c2=O)cc1", "Potency": "inconclusive: 35.5 µM [activator, single point]"},
      {"smiles": "NC(=O)c1ccccc1OCc1nnc(-c2ccccc2Br)o1", "Potency": "inconclusive: 11.2 µM [activator, partial curve, poor fit]"},
      {"smiles": "O=C(c1ccccc1)N(Cc1nc2ccccc2c(=O)[nH]1)C1CCCCC1", "Potency": "inactive"},
      {"smiles": "CC(NC(=O)c1ccccc1Cl)C1COc2ccccc2O1", "note": "(configuration not stated)", "Potency": "inconclusive: 12.6 µM [activator, partial curve, poor fit]"},
      {"smiles": "CCOC(=O)CN1C(=O)S/C(=C/c2ccc3c(c2)n(C)c(=O)n3C)C1=O", "Potency": "active: 5.01 µM"},
      {"smiles": "O=C(Nc1cccc(-c2csc(Nc3cccc(C(F)(F)F)c3)n2)c1)c1ccccc1", "Potency": "inactive"},
      {"smiles": "CCn1c(CNc2ccc(C)cc2)nnc1SCC(=O)NCc1ccccc1", "Potency": "inconclusive: 15.8 µM [activator, single point]"},
      {"smiles": "Cc1cc(C(=O)CSc2ccccc2)cc(C)c1O", "Potency": "inconclusive: 6.31 µM [activator, partial curve, poor fit]"},
      {"smiles": "O=C(N/N=C/c1ccc(Cl)cc1)Nc1ccccc1", "Potency": "inconclusive: 7.08 µM [activator, partial curve, poor fit]"},
      {"smiles": "O=C(NC1=NCCS1)c1ccc(-c2ccc(Cl)cc2)o1", "Potency": "active: 2.82 µM"},
      {"smiles": "COc1ccc(/C=C/c2nnc(NC(=O)CSc3ccc(C)cc3)s2)cc1", "Potency": "inconclusive: 8.91 µM [activator, partial curve, poor fit]"},
      {"smiles": "Nc1ccc(C(=O)OCCc2ccccc2)cc1", "Potency": "inconclusive: 17.8 µM [activator, single point]"},
      {"smiles": "O=C1ON=C(c2ccccc2[N+](=O)[O-])/C1=C/c1cccc([N+](=O)[O-])c1O", "Potency": "inactive"},
      {"smiles": "CCOC(=O)C1(Cc2ccccc2)CCCN(C(=O)C=C(C)C)C1", "note": "(configuration not stated)", "Potency": "inconclusive: 11.2 µM [activator, partial curve, poor fit]"},
      {"smiles": "CCc1ccc(-c2cnc3ccccc3n2)cc1NC(=O)CNC(=O)c1ccccc1", "Potency": "active: 7.94 µM"},
      {"smiles": "COc1ccccc1-c1nc(-c2ccc(Br)cc2)no1", "Potency": "inconclusive: 31.6 µM [activator, single point]"},
      {"smiles": "O=C(NC(=S)Nc1ccccc1)c1cccs1", "Potency": "active: 5.62 µM"},
      {"smiles": "CCOC(=O)Nc1ccc(Oc2ccccc2)cc1", "Potency": "inconclusive: 12.6 µM [activator, partial curve, poor fit]"},
      {"smiles": "O=C(CSc1ccc2ccccc2n1)c1ccc2c(c1)OCO2", "Potency": "inconclusive: 10 µM [activator, partial curve, poor fit]"},
      {"smiles": "C=CCn1c(=O)c(C(=O)Nc2ccccc2S(N)(=O)=O)c(O)c2ccccc21", "Potency": "inconclusive: 15.8 µM [activator, partial curve, poor fit]"},
      {"smiles": "O=C(Nc1ccc2[nH]c(=S)sc2c1)c1ccccc1", "Potency": "inconclusive: 2.51 µM [activator, full curve, poor fit]"},
      {"smiles": "CC1CCC(=O)N(CCSc2ccccc2)CC1", "note": "(configuration not stated)", "Potency": "inconclusive: 2 µM [activator, partial curve, poor fit]"},
      {"smiles": "Cc1ccc2c(Cl)c(C(=O)NCCc3ccccc3)sc2c1", "Potency": "active: 3.16 µM"},
      {"smiles": "CC(C)(C)c1ccc(C(=O)Nc2cccc(S(=O)(=O)NC3=NCCC3)c2)cc1", "Potency": "inconclusive: 0.794 µM [activator, full curve, poor fit]"},
      {"smiles": "CCOC(=O)CC(Nc1nc(N2CCOCC2)nc(N2CCOCC2)n1)c1ccccc1Cl", "note": "(configuration not stated)", "Potency": "inactive"},
      {"smiles": "COc1cccc(/C=c2\\s/c(=C\\C(=O)C(C)(C)C)[nH]c2=O)c1", "Potency": "inactive"},
      {"smiles": "O=C(/C=C\\Nc1ccc2c(c1)OCO2)c1ccc(Cl)s1", "Potency": "inconclusive: 0.562 µM [activator, full curve, poor fit]"},
      {"smiles": "Cn1cc([N+](=O)[O-])c(C(=O)Nc2nc(-c3ccc(Cl)cc3)cs2)n1", "Potency": "inactive"},
      {"smiles": "O=C(Nc1ccc(Nc2ccccc2)cc1)c1ccccc1F", "Potency": "active: 1.12 µM"},
      {"smiles": "c1ccc(-c2ccc3ccccc3n2)cc1", "Potency": "active: 11.2 µM"},
      {"smiles": "COc1ccc(OC)c(/C=N/NC(=O)CN2CCSCC2)c1", "Potency": "inactive"},
      {"smiles": "Cc1cccc(OCC(=O)Nc2nc(-c3ccncc3)cs2)c1", "Potency": "inactive"},
      {"smiles": "NC(=O)c1ccc(NC(=O)CN2CCN(S(=O)(=O)c3ccc4c(c3)OCCO4)CC2)cc1", "Potency": "inactive"},
      {"smiles": "Cc1cc(C(=O)COC(=O)c2ccc[nH]c2=O)c(C)n1-c1ccccc1F", "Potency": "inconclusive: 1.26 µM [activator, full curve, poor fit]"},
      {"smiles": "CC(=O)Nc1ccc(C(=O)COC(=O)C2CC2C)c(F)c1", "note": "(configuration not stated)", "Potency": "active: 6.31 µM"},
      {"smiles": "CN(CC(=O)Nc1cccc2ccccc12)C(=O)c1ccc(F)cc1F", "Potency": "inactive"},
      {"smiles": "O=C(Nc1ccc2nsnc2c1)N1CCCCCC1", "Potency": "inconclusive: 31.6 µM [activator, single point]"},
      {"smiles": "COC(=O)N/N=C(\\C)c1ccco1", "Potency": "inactive"},
      {"smiles": "O=C(c1cc(COc2c(F)cccc2F)on1)N1CCCCCC1", "Potency": "inconclusive: 12.6 µM [activator, partial curve, poor fit]"},
      {"smiles": "CCOc1ccc(NC(=O)CN2CCCC2c2cccs2)cc1S(=O)(=O)N1CCCCC1", "note": "(configuration not stated)", "Potency": "inactive"},
      {"smiles": "CCc1c(C)nc2cc(-c3cccc(Br)c3)[nH]n2c1=O", "Potency": "inconclusive: 12.6 µM [activator, partial curve, poor fit]"},
      {"smiles": "CCN(CC)C(=O)c1ccc(COc2ccccc2Br)o1", "Potency": "active: 7.08 µM"},
      {"smiles": "COc1ccccc1Nc1nc(-c2cccnc2)cs1", "Potency": "active: 10 µM"},
      {"smiles": "COc1ccc(C(=O)N2c3ccccc3CC2C)cc1OC", "note": "(configuration not stated)", "Potency": "inactive"},
      {"smiles": "O=C(Nc1ccc(-c2noc(-c3cccs3)n2)cc1)c1cccnc1", "activation": "inconclusive: -39.6% [activator]"},
      {"smiles": "COc1ccc2cc(CCC(C)=O)ccc2c1", "Potency": "inconclusive: 10 µM [activator, partial curve, poor fit]"},
      {"smiles": "O=C(O)c1ccc(COc2ccc3ccccc3c2)o1", "Potency": "inconclusive: 1.58 µM [activator, partial curve, poor fit]"},
      {"smiles": "CC(Oc1ccccc1)C(=O)NC1=NCCS1", "note": "(configuration not stated)", "Potency": "inconclusive: 20 µM [activator, partial curve, poor fit]"},
      {"smiles": "COc1cc(/C=C2\\SC(=S)N(NS(=O)(=O)c3ccc(C)cc3)C2=O)cc(OC)c1OC", "Potency": "inactive"},
      {"smiles": "CC(=O)Nc1ccc(/C=C/c2nc3ccccc3o2)cc1", "Potency": "inconclusive: 0.316 µM [activator, full curve, poor fit]"},
      {"smiles": "Cc1cc(/C=C2\\SC(N)=NC2=O)c(C)n1-c1ccc(F)cc1", "Potency": "inconclusive: 11.2 µM [activator, partial curve, poor fit]"},
      {"smiles": "Cc1ccc(OCC(=O)c2ccc3c(c2)CCCC3)cc1C", "Potency": "active: 4.47 µM"},
      {"smiles": "O=C(Nc1cccc(Cl)c1)Nc1ccccc1C(=O)O", "Potency": "inconclusive: 1.26 µM [activator, full curve, poor fit]"},
      {"smiles": "CC1CC(C(F)(F)C(F)(F)F)n2nc(C(=O)O)cc2N1", "note": "(configuration not stated)", "Potency": "inactive"},
      {"smiles": "COc1ccc(Cl)cc1NC(=O)NCC1CCN(C(=O)OC(C)(C)C)CC1", "Potency": "inactive"},
      {"smiles": "COc1ccc(Cn2c(C3CC3)nc3ccc(NC(C)=O)cc3c2=O)cc1", "Potency": "inconclusive: 31.6 µM [activator, single point]"},
      {"smiles": "CCOP(=O)(OCC)c1nc(-c2ccc(F)cc2)oc1NCc1ccccc1", "Potency": "inactive"},
      {"smiles": "CC(C)C[C@@H](CNCC(=O)[C@H](CC(C)C)NC(=O)c1[nH]cnc1C(=O)N[C@@H](C)CN)NC(=O)c1nc[nH]c1C(=O)N[C@@H](Cc1ccccc1)C(=O)O", "Potency": "inactive"},
      {"smiles": "C=CCn1c(SC)nnc1-c1cccc([N+](=O)[O-])c1", "Potency": "inactive"},
      {"smiles": "CCOC(=O)c1sc(NC(=O)CSc2n[nH]c(CC(C)C)n2)nc1C", "Potency": "inconclusive: 14.1 µM [activator, single point]"},
      {"smiles": "Cc1ccc(C(=O)Nc2ncccc2S(=O)(=O)c2ccccc2)cc1", "Potency": "inconclusive: 2.82 µM [activator, full curve, poor fit]"}
    ]}
  ]
}
